Reference: PubChem BioAssay AID360 (National Center for Advancing Translational Sciences (NCATS), 2006)
About 550 (1.1%) of roughly 48,000 compounds were called active. Inconclusive results (about 4%) are left out. Rule as the data show it: active = potency below about 15 µM; inconclusive = mostly about 16 µM to 33 µM; inactive = weaker than that. The list shows a part of the results.

Molecular target: Lysosomal acid glucosylceramidase (Homo sapiens) (UniProt P04062)
Experiment: Glucocerebrosidase;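 also: the screen sought inhibitors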
Details: purified enzyme, resorufin glucoside fluorescence (screen aimed at inhibitors), 20 min; series mostly up to 77 µM
Method in brief: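 Normal human glucocerebrosidase (0.2 nM final) was assayed with resorufin β-D-glucopyranoside (30 uM final) in 50mM citric acid/KH2PO4, 10mM sodium taurocholate, 0.01% tween-20, pH 5.9. Compounds were titrated; fluorescence (Ex 548, Em 600) read after 20 min at RT.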
Potency is read from the fitted curve at half-maximal effect.

UniProt P04062, sequence (P04062 whole entry, looked up): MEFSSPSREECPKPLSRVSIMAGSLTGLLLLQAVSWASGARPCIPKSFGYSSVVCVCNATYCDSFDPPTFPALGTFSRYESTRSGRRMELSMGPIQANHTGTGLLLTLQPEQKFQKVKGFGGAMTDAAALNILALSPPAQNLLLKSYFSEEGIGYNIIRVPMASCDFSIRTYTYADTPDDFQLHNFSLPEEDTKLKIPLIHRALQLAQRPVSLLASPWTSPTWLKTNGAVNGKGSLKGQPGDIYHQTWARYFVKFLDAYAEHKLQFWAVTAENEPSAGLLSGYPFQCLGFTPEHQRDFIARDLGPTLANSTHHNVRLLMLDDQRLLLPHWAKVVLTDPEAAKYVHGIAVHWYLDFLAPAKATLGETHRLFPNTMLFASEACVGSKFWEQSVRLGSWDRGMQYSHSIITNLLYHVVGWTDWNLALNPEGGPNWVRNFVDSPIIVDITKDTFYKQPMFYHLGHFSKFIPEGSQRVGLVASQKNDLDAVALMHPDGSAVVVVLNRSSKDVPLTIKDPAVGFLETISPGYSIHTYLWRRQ

Potency, active:
COc1ccc(Br)cc1C(=O)Nc1ccc(N2CCN(S(C)(=O)=O)CC2)cc1 11.7 µM

Potency, inactive:
CC1CCCCC1NC(=O)COC(=O)c1ccc(S(=O)(=O)N2CCOCC2)cc1 (stereo not drawn) > 76.9 µM
CC(=O)N1CCC(=O)N(C(C)C)c2ccccc21 > 76.9 µM
CC(=O)c1cccc(NC(=O)N2CCCC2C(=O)NCc2ccc(F)cc2)c1 (stereo not drawn) > 76.9 µM
C=CCNC(=O)C1CCN(S(=O)(=O)c2ccccc2)CC1 > 76.9 µM
Cc1ccc(S(=O)(=O)C2(C(=O)N3CCCCCC3)CC2)cc1 > 76.9 µM
O=C(CSCc1cnn(-c2ccccc2)c1-n1cccc1)NCc1cccs1 > 76.9 µM
O=C(CCNS(=O)(=O)c1ccc(Br)s1)N1CCN(c2ccccc2)CC1 > 76.9 µM
Cc1ccc(NC(=O)N2CCC(C(=O)NCC(C)C)CC2)cc1 > 76.9 µM
CCC(C)n1c(-c2cccs2)nc2nc3ccccc3nc21 (stereo not drawn) > 76.9 µM
COc1ccc(-c2cc(C(=O)N3CCc4ccccc4C3)no2)cc1OC > 76.9 µM
c1ccc(-c2nc3nc4ccccc4nc3n2Cc2ccco2)cc1 > 76.9 µM
Cn1c(=O)[nH]c(=O)c2c1nc(CN1CCN(c3ccccc3F)CC1)n2CCCc1ccccc1 > 76.9 µM
CCOC(=O)c1sc2nc3c(cc2c1N)COC(C)(C)C3 > 76.9 µM
C=CCNc1oc(-c2cccc3ccccc23)nc1C#N > 76.9 µM
COC(=O)c1cn(C(=O)OC)c2ccccc12 > 76.9 µM
O=c1cc(-c2ccccc2)[nH]c2[nH]n(-c3ccccc3)c(=O)c12 > 76.9 µM
Cc1ccc(C)c(Cn2nnc3c(=O)[nH]c(C(=O)NCc4ccco4)nc32)c1 > 76.9 µM
O=C(COC(=O)c1cccs1)NCc1ccccc1 > 76.9 µM
Cc1cccc2cc(CN(CCN3CCOCC3)C(=O)NCc3ccccc3)c(=O)[nH]c12 > 76.9 µM
COC(=O)c1ccc(NC(=O)C2CCCN2S(=O)(=O)c2ccc(OC)cc2)cc1 (stereo not drawn) > 76.9 µM
Cc1ccc(SCC(=O)NCCN2C(=O)CSC2=O)c(C)c1 > 76.9 µM
CN(c1ccc(OCc2nnc(-c3ccccc3)o2)cc1)S(=O)(=O)c1ccccc1 > 76.9 µM
CCCCC(=O)Nc1cccc(NC(=O)CC)c1 > 76.9 µM
CCN(CC)S(=O)(=O)c1cccc(C(=O)N2CCCCC2)c1 > 76.9 µM
Cc1ccc2c(c1)C(O)(c1c(C)[nH]c3ccccc13)C(=O)N2 (stereo not drawn) > 76.9 µM
COc1ccc(CCn2c(C)cc(C(=O)CSc3nnc(N)s3)c2C)cc1 > 76.9 µM
CC(C)C(OC(=O)c1ccco1)C(=O)NC1CCCCC1 (stereo not drawn) > 76.9 µM
CCCCn1nnc(NC(=O)c2sc3cc(Cl)ccc3c2Cl)n1 > 76.9 µM
Cc1ccc(S(=O)(=O)N2CCC(C(=O)Nc3nnc(C4CCCC4)s3)CC2)cc1 > 76.9 µM
CCOC(=O)c1ccccc1NC(=O)CSc1nc2c(c(=O)n(C)c(=O)n2C)n1C > 76.9 µM
Cc1cc(C)c(C)c(OCc2nc(-c3cccnc3)no2)c1 > 76.9 µM
O=C(CCNS(=O)(=O)c1cccs1)N1CCc2ccccc2C1 > 76.9 µM
COc1cccc(-n2c(SCC(=O)OC(C)C)nnc2-c2cccnc2)c1 > 76.9 µM
Cc1cc(NC(=O)COC(=O)COc2ccc3c(c2)CCC3)no1 > 76.9 µM
Cc1ccc(-c2nc(N)n(C(=O)Cc3ccccc3)n2)cc1 > 76.9 µM
CC1CCCCN1c1nnc(N)s1 (stereo not drawn) > 76.9 µM
CC(=O)c1cn(CC(=O)NCc2cccnc2)c2ccccc12 > 76.9 µM
Cc1ccc(C(C)C)c(OCC(=O)Nc2ccc(Cl)cn2)c1 > 76.9 µM
Clc1ccc(-c2nn3c(-c4ccncc4)nnc3s2)c(Cl)c1 > 76.9 µM
CCCC(=O)Nc1ccc2oc(-c3ccncc3)nc2c1 > 76.9 µM
O=C(NC1(C(F)(F)F)C(=O)Nc2c1c(=O)[nH]c(=O)n2Cc1ccco1)C1CC1 (stereo not drawn) > 76.9 µM
NC(=O)c1sc2nc3c(c(-c4cccs4)c2c1N)CCCC3 > 76.9 µM
CCOC(=O)c1ccc(-n2[nH]c(-c3ccccc3)cc2=O)cc1 > 76.9 µM
O=C(NC1CCCCC1)C1CCN(c2nccs2)CC1 > 76.9 µM
Cc1ccc2nc(-c3ccc(SCC(=O)O)nc3)[nH]c2c1 > 76.9 µM
CCOc1ccc(NC(=O)CN2CCN(CC(=O)Nc3ccc(C(=O)OC)cc3)CC2)cc1 > 76.9 µM
CN1CCN(C(=O)c2ccc3c(c2)NC(=O)C(C)(C)O3)CC1 > 76.9 µM
COc1cccc(CNc2ccc(S(N)(=O)=O)cc2)c1OC > 76.9 µM
O=C(OCn1nnc2ccccc2c1=O)c1ccc2ncsc2c1 > 76.9 µM
Cc1ccc2c(COC(=O)c3cnc(C)cn3)cc(=O)oc2c1 > 76.9 µM
CCOc1ccc(NC(=O)CN2CCC(NC(=O)C3CCCCC3)CC2)cc1 > 76.9 µM
O=C(NCC(=O)N(c1ccccc1)C(C(=O)NC1CCCCC1)c1ccncc1)c1ccco1 (stereo not drawn) > 76.9 µM
O=C(O)C1CCCN1S(=O)(=O)c1ccc2ccccc2c1 (stereo not drawn) > 76.9 µM
O=C1Nc2cc(C(=O)N3CCOCC3)ccc2SC1N1CCOCC1 (stereo not drawn) > 76.9 µM
CC(C)COC(=O)n1c(=O)oc2cc(S(=O)(=O)N3CCCCC3)ccc21 > 76.9 µM
CCS(=O)(=O)NCCc1cc2c(OC)ccc(OC)c2[nH]c1=O > 76.9 µM
O=C(NCCCn1ccnc1)C(F)(F)C(F)(F)C(=O)NCCCn1ccnc1 > 76.9 µM
